57 compounds from PMC4336329 (PLoS ONE, 2015) can be followed below.

In all, about 310,000 compounds went through this assay and about 2,200 (0.71%) showed an effect of 50% or more. Effects have a minus sign here. The list shows a part of the results.

The experiment deals with human ether-à-go-go-related gene (hERG) potassium channel (human, UniProt Q12809). Description: primary screen, population patch clamp on CHO cells stably expressing hERG.
human ether-à-go-go-related gene (hERG) potassium channel, sequence (Q12809 whole entry, looked up): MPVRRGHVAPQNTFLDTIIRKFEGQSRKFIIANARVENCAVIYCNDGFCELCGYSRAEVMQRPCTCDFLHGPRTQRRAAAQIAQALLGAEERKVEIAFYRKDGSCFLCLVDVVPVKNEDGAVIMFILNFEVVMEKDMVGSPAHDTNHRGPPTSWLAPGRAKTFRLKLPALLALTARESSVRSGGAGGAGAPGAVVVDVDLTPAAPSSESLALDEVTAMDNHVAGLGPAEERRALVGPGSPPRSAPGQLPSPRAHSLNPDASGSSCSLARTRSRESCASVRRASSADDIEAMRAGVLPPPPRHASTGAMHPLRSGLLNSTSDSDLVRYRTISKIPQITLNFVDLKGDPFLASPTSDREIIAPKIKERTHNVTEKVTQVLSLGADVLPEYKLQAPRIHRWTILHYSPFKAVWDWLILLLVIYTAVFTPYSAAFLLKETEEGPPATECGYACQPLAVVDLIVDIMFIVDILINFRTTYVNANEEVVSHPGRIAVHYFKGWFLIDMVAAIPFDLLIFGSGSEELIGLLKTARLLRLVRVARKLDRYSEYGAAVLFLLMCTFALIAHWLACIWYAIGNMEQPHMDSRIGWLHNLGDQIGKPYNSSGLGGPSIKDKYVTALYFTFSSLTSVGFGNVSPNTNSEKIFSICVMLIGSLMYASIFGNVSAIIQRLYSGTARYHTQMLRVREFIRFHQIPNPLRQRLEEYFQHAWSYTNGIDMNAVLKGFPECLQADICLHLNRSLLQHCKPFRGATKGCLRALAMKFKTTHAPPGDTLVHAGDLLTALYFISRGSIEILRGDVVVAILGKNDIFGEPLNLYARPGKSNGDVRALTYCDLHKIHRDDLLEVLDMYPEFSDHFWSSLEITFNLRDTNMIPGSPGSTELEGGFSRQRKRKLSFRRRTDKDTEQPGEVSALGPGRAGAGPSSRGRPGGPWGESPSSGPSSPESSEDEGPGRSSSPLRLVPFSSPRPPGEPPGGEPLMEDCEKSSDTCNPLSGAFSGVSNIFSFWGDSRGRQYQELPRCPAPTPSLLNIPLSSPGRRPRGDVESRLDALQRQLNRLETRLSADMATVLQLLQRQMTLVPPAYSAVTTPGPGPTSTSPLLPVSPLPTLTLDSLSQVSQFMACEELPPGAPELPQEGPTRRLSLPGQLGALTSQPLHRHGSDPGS
For `Cc1nc2ccccn2c1C(=O)N/N=C/c1ccc(CNC(=O)C(=O)Nc2ccccc2)o1`, the “hERG current change (%, negative = inhibition) at 1uM” value turned out to be 0.629%.

`Cc1ccc(-c2cc(C(=O)NCc3cnn(C)c3C)c3cc(Br)ccc3n2)cc1`: the “hERG current change (%, negative = inhibition) at 1uM” value worked out at 10.6%.

In the case of `CC(C)(C)c1ccccc1NC(=O)CN1C(=O)NC(Cc2ccccc2)C1=O` (stereo not drawn), the “hERG current change (%, negative = inhibition) at 1uM” value was 13.5%.

Consider `CCc1noc(C)c1C(=O)OCC(=O)Nc1cccc(C)c1`, for which the “hERG current change (%, negative = inhibition) at 1uM” value was found to be 2.19%.

Take `Nc1c2c(nc3cccc(Cl)c13)N(c1ccccc1)CC2`: the “hERG current change (%, negative = inhibition) at 1uM” value is recorded as 27.5%.

`CCN1CCCC1CNC(=O)Cn1cnc2ccc(S(=O)(=O)N3CCC(C)CC3)cc2c1=O` (stereo not drawn): the “hERG current change (%, negative = inhibition) at 1uM” value is on record as -11.3%.

Regarding `O=C(NCC(c1cccs1)N1CCOCC1)C1CCN(S(=O)(=O)c2ccccc2C(F)(F)F)CC1` (stereo not drawn), the “hERG current change (%, negative = inhibition) at 1uM” value was -13%.

For the compound `COc1cc(C(=O)Oc2cccc(C(=S)N3CCOCC3)c2)cc(OC)c1OC`, the “hERG current change (%, negative = inhibition) at 1uM” value is 3.58%.

As for `CC(C)C12CN3CC(C(C)C)(CN(C1)C3c1ccccc1)C2O` (stereo not drawn), the “hERG current change (%, negative = inhibition) at 1uM” value was 6.19%.

On to `CCOC(=O)c1c(C)[nH]c(C(=O)COC(=O)CNC(=O)c2ccccc2Cl)c1C`, for which the “hERG current change (%, negative = inhibition) at 1uM” value came out at 11.6%.

`COc1ccc(C2CC(c3ccccc3)=NN2C(=O)COC(=O)c2cccnc2)cc1` (stereo not drawn): the “hERG current change (%, negative = inhibition) at 1uM” value came out at 12.2%.

`Cc1cc(NC(=O)CCc2ccc(C)o2)no1`: the “hERG current change (%, negative = inhibition) at 1uM” value was found to be 3.28%.

Regarding `Cc1c(C(=O)N2CCCCCC2)c(S(=O)(=O)NCc2ccccc2Cl)c(C)n1C`, the “hERG current change (%, negative = inhibition) at 1uM” value was found to be 4.3%.

On to `O=Cc1ccc(OCC(=O)NC(=O)NC2CCCCC2)cc1`, for which the “hERG current change (%, negative = inhibition) at 1uM” value is listed as -2.06%.

As to `CC(C)(C)c1ccc(C(=O)O)c(C(=O)c2ccc(C(=O)O)cc2)c1`, the “hERG current change (%, negative = inhibition) at 1uM” value is reported as 8.21%.

Regarding `CCCOc1ccc(CCN2CCC(=O)NC2=O)cc1C`, the “hERG current change (%, negative = inhibition) at 1uM” value is given as 5.45%.

Regarding `O=c1c2ccccc2ncn1CCOCCOc1cccc(Br)c1`, the “hERG current change (%, negative = inhibition) at 1uM” value was 1.26%.

On to `O=C(NS(=O)(=O)N1CCCC1)C1=C(N2CCCC2)COC1=O`, for which the “hERG current change (%, negative = inhibition) at 1uM” value is 16.2%.

`COc1ccc(NC(=O)COC(=O)/C=C/c2cnc3ccccc3n2)cc1`: the “hERG current change (%, negative = inhibition) at 1uM” value was found to be 10%.

On to `Cc1cccc(-n2ncc3c(N4CCC(C)CC4)ncnc32)c1`, for which the “hERG current change (%, negative = inhibition) at 1uM” value stood at 15.1%.

Take `Cc1cccc(/C=N/NC(=O)c2ccc(Br)cc2)c1`: the “hERG current change (%, negative = inhibition) at 1uM” value amounted to 9.11%.

Take `CC(CN1CCOCC1)OC(=O)c1ccccc1Br.Cl` (stereo not drawn): the “hERG current change (%, negative = inhibition) at 1uM” value was 8.73%.

As for `CC(C)N1CCN(Cc2nc3c(s2)CCCC3)CC1CCO` (stereo not drawn), the “hERG current change (%, negative = inhibition) at 1uM” value is listed as 13%.

Regarding `COC(=O)CNc1nc(-c2cccnc2)nc2ccccc12`, the “hERG current change (%, negative = inhibition) at 1uM” value came out at 20%.

Take `CC1Cc2ccccc2N1C(=O)Cn1cnc2ccccc21` (stereo not drawn): the “hERG current change (%, negative = inhibition) at 1uM” value came out at 13.3%.

As to `Cc1ccc(S(=O)(=O)Nc2ccc3c(c2)nc(CCN2CCCC2)n3C)cc1`, the “hERG current change (%, negative = inhibition) at 1uM” value is recorded as -13.7%.

`CCC(=O)Nc1cc2nn(-c3ccc(OC)cc3)nc2cc1C`: the “hERG current change (%, negative = inhibition) at 1uM” value was found to be 9.28%.

As to `CCn1c(=O)c2sccc2n2c(CCCC(=O)NCCc3ccc(S(N)(=O)=O)cc3)nnc12`, the “hERG current change (%, negative = inhibition) at 1uM” value came to 18%.

`CN1CCC(=NNC(=O)CN(c2ccc(Oc3ccccc3)cc2)S(C)(=O)=O)CC1`: the “hERG current change (%, negative = inhibition) at 1uM” value is given as -4.45%.

`O=C(COc1ccc(S(=O)(=O)NC2CCCCC2)cc1Cl)Nc1ccc2c(c1)OCO2`: the “hERG current change (%, negative = inhibition) at 1uM” value was determined as 9.16%.

Regarding `Cc1cccc(C)c1OCc1cc(C(=O)N2CCC[C@H]2C(N)=O)no1`, the “hERG current change (%, negative = inhibition) at 1uM” value was found to be 13.1%.

As for `O=C(NCCCN1CCOCC1)c1cc(C(=O)C2CCCCC2)c[nH]1`, the “hERG current change (%, negative = inhibition) at 1uM” value turned out to be 12.7%.

For the compound `CCOCCCNC(=O)c1c[nH]c2c(CC)cccc2c1=O`, the “hERG current change (%, negative = inhibition) at 1uM” value turned out to be 20.9%.

As for `CCCc1nnc(NC(=O)c2c(O)c3cccc4c3n(c2=O)CC4)s1`, the “hERG current change (%, negative = inhibition) at 1uM” value was determined as 15.5%.

For the compound `O=C(OCc1nnc(-c2ccccc2)o1)C1=COCCO1`, the “hERG current change (%, negative = inhibition) at 1uM” value worked out at 3.92%.

Take `N#C/C(=C\c1ccc([N+](=O)[O-])cc1)c1ccccn1`: the “hERG current change (%, negative = inhibition) at 1uM” value turned out to be 6.02%.

Consider `Cc1cc(C)n2c(SCC(=O)N(C)C3CCS(=O)(=O)C3)nnc2n1` (stereo not drawn), for which the “hERG current change (%, negative = inhibition) at 1uM” value is 5.59%.

For `COc1ccc(OC)c(NC(=O)CSc2nnc3ccc(-c4ccccn4)nn23)c1`, the “hERG current change (%, negative = inhibition) at 1uM” value was 12.5%.

As for `COc1ccc(OC)c(NC(=O)c2cccc(Cn3cc(Br)c([N+](=O)[O-])n3)c2)c1`, the “hERG current change (%, negative = inhibition) at 1uM” value was -1.68%.

Take `CC(C)NC(=O)c1nc2ccccc2s1`: the “hERG current change (%, negative = inhibition) at 1uM” value amounted to 3.72%.

As for `COc1ccc(OCc2nn3c(Cn4cnc5ccccc54)nnc3s2)cc1`, the “hERG current change (%, negative = inhibition) at 1uM” value is given as -2.93%.

For the compound `CCc1c(C)sc(NC(=S)NC(C)C2CCCO2)c1C(=O)OC` (stereo not drawn), the “hERG current change (%, negative = inhibition) at 1uM” value came to 3.79%.

As to `O=C(/C=C/c1ccc(Br)cc1)c1ccc(NC(=O)c2ccco2)cc1`, the “hERG current change (%, negative = inhibition) at 1uM” value was determined as 10.4%.

Consider `Cc1ccccc1NC(=O)c1cccc(C(F)(F)F)c1`, for which the “hERG current change (%, negative = inhibition) at 1uM” value was 2.16%.

For the compound `Cc1ccc2nc3c(cc2c1)c(NC(=O)C(C)(C)C)nn3CC(C)C`, the “hERG current change (%, negative = inhibition) at 1uM” value is 7.75%.

`NC(=O)N/N=C/C=C/c1ccccc1`: the “hERG current change (%, negative = inhibition) at 1uM” value amounted to 14.5%.

Consider `O=c1cc(CSc2nnnn2-c2ccccc2)nc2nc[nH]n12`, for which the “hERG current change (%, negative = inhibition) at 1uM” value is on record as 8.55%.

In the case of `CC(=O)Nc1ccc(NC(=O)C2CC(=O)N(c3ccccc3Cl)C2)cc1` (stereo not drawn), the “hERG current change (%, negative = inhibition) at 1uM” value stood at 9.11%.

As for `CC(=O)c1ccc(NC(=O)c2cnn3ccccc23)cc1`, the “hERG current change (%, negative = inhibition) at 1uM” value is given as 11.1%.

With `O=C(COC(=O)c1ccc(Cl)c(S(=O)(=O)N2CCCCC2)c1)NCC1CCCO1` (stereo not drawn), the “hERG current change (%, negative = inhibition) at 1uM” value is given as 1.02%.

For `CCCCOP(=O)(c1ccc(N(C)C)cc1)C(O)c1ccc(OC)c(OC)c1` (stereo not drawn), the “hERG current change (%, negative = inhibition) at 1uM” value amounted to 8.62%.

With `Cc1cc(NC(=O)CCC(=O)N(c2ccc(C)c(F)c2)C(C(=O)NC2CCCC2)c2ccco2)no1` (stereo not drawn), the “hERG current change (%, negative = inhibition) at 1uM” value came to 7.44%.

With `COc1ccc(-c2cc(-c3ccccc3)nc(SCC(=O)Nc3ncc(C)s3)c2C#N)cc1`, the “hERG current change (%, negative = inhibition) at 1uM” value amounted to 5.39%.

On to `CC(C)n1c(SC2CCOC2=O)nc2ccccc21` (stereo not drawn), for which the “hERG current change (%, negative = inhibition) at 1uM” value is 3.49%.

`Fc1cccc(Cl)c1CNCc1cccnc1`: the “hERG current change (%, negative = inhibition) at 1uM” value turned out to be 11.1%.

For `COc1ccc(C(C)=O)cc1CN1C(=O)NC2(CCCCCCC2)C1=O`, the “hERG current change (%, negative = inhibition) at 1uM” value is reported as 19.8%.

As to `O=C(Cn1c(=O)oc2ccccc21)NCCc1ccccc1Cl`, the “hERG current change (%, negative = inhibition) at 1uM” value was determined as 12.6%.
